Measured values from patent US20250000991A1, “NECTIN-4 ANTIBODIES AND ANTIBODY-DRUG CONJUGATES” (Eli Lilly and Company, priority 2023, published 2025).

T1: human Nectin-4 (Homo sapiens, UniProt Q96NY8)
T1 construct: His tag; purchased Acro Biosystems NE4-H52H3
T1 sequence (Q96NY8 32-510): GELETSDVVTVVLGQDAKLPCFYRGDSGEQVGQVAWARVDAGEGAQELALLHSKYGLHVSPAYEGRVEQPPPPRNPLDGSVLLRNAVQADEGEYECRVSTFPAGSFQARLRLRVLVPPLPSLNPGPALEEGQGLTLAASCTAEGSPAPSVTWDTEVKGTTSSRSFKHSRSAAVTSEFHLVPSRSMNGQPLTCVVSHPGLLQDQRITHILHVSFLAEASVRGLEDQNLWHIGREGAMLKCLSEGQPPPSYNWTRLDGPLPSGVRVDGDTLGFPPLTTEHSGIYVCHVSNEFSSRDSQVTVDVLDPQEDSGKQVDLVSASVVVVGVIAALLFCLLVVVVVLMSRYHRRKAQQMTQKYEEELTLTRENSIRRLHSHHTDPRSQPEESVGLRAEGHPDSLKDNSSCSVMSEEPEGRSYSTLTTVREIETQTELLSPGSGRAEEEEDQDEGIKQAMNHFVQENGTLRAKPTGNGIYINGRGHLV


Legend:
human Nectin-4 = molecular target: T1, human Nectin-4; assay: Surface plasmon resonance (Biacore 8K+) binding of nectin-4 ADCs to human Nectin-4; conditions: human Nectin-4, 37° C., ADC Formula XI DAR 8; n=3 mean ± SD, n=2 replicate values
Experimental: (§1) An anti-human Fc sensor surface was prepared by amine-coupling of goat anti-human IgG Fc (Southern Biotech Cat. No. 2014-01, Birmingham, AL) to a Biacore Series S CM4 (Cytiva Cat. No. BR-100534) sensor surface at 25° C. For immobilization, a running buffer of 10 mM HEPES, 150 mM NaCl, 0.05% Tween-20, pH 7.4 was used. Flow cells 1 & 2 of all 8 channels were activated with a 1:1 (v/v) mixture of 400 mM 1-Ethyl-3-(3-dimethylaminopropyl) carbodiimide hydrochloride (EDC) and […] N-Hydroxysuccinimide (NHS) at a flow rate of 10 uL/min for 7 minutes. Then the anti-human IgG Fc capture reagent was coupled to the sensor surface (diluted to 50 μg/mL in 10 mM Acetate pH 4.5 buffer) by injecting it in all flow cells and channels at a flow rate of 10 uL/min for 7 minutes. Remaining active groups were blocked by injecting 100 mM ethylenediamine (in 200 mM Borate buffer, pH 8.5) in all flow cells and channels at a flow rate of 10 uL/min for 7 minutes. All channels and flow cells were then preconditioned using three consecutive 1-minute injections of 75 mM phosphoric acid at 10 uL/min.
(§2) In each analysis cycle, a different ADC was captured on flow cell 2 of each channel by injecting it at 5 μg/mL and 10 uL/min. After capture, the same analyte was injected on flow cells 1 and 2 in all 8 channels for 2 minutes at 30 uL/n and dissociation was monitored for 10 minutes. After dissociation, all surfaces were regenerated with three 1-minute injections of 5 mM phosphoric acid at 10 uL/min. ADC capture and analyte cycles were repeated to obtain analyte binding of each ADC at concentrations of 0, 2.5, 7.4, 22, 67, 200 and 600 nM nectin-4.
(§3) Sensorgram data were fit globally with the default 1:1 binding model in Biacore Insight Evaluation Software v3.0.12.15655.

cyno Nectin-4 = assay: Surface plasmon resonance (Biacore 8K+) binding of nectin-4 ADCs to cyno Nectin-4; conditions: cyno Nectin-4, 37° C., ADC Formula XI DAR 8, n=1
Experimental: as §1, §2, §3

rat Nectin-4 = assay: Surface plasmon resonance (Biacore 8K+) binding of nectin-4 ADCs to rat Nectin-4; conditions: rat Nectin-4, 37° C., ADC Formula XI DAR 8, n=1
Experimental: as §1, §2, §3

[1] = tested on: T24 mScarlet clone 5 Nectin-4 negative cells; assay: Bystander killing of T24-mScarlet clone 5 cells co-cultured with T24-human nectin4 clone108 (imaging); format: cell-based; conditions: T24-mScarlet clone5 : T24-human nectin4 clone108 9:1, 5 days, ADC Formula XI DAR 8; read-out: IC50 of bystander effect
Experimental: T24 cell line was engineered to express mScarlet and clonally selected to test in bystander assay. T24-mScarlet clone5 and T24-human nectin4 clone108 were mixed and seeded at a total of 1000 cells/well/100 ul with a ratio of 9:1 in culture medium (McCoy's 5A+1× GlutaMax+10% Heat Inactivated Fetal Bovine Serum+400 μg/ml G418) in flat clear bottom 96-well plates. T24 mScarlet clone 5 cells were negative for nectin-4 expression. Plates were incubated at 37° C. with 5% CO2 overnight. Next day, ADCs were added at final working concentration from 50 nM, 1:4 serially diluted in culture medium. Plates were covered with Breathe-Easy® sealing membrane, placed in BioSpa and scanned in Cytation5 every day for 5 days.
Images of T24-mScarlet cells were captured and analyzed by Cytation5 with Gen5 Image Prime 3.11. Percentage of T24-mScarlet cell killing was calculated by decreased Integrated Intensity (area×mean intensity), normalized to zero hour and no treatment. Data was graphed and analyzed using GraphPad Prism version 9.5.1. IC50 was determined via log(inhibitor) vs. response-variable slope (four parameters) curve fitting.

MDA-MB-468 xenograft = assay: Tumor xenograft, moderate nectin-4 expression; format: in vivo, NSG mice; conditions: MDAMB468 xenograft, single dose 2 mg/kg, day 71
Experimental: In a separate study, female NSG mice between 5-6 weeks of age were injected subcutaneously with MDA-MB-468 cells with moderate Nectin-4 expression. When tumors reached approximately 150-250 mm^3; animals were matched by tumor volume into treatment or control groups and dosing initiated (Day 0, n=8 per group). The test articles were given at a single dose (2 mg/kg) formulated with 5% Dextrose. Tumors were measured biweekly until Day 71.
In both models, a 2 mg/kg single dose treatment of either the nectin-4 ADCs (exemplified herein with each of Abs1-8 conjugated as in Formula XI, and with a DAR of 8) or benchmark enfortumab ADC (enfortumab conjugated with Formula XI, and with a DAR of 8) was used. Tumor growth was measured at day 40 for UMUC3 Nectin-4 clone F7 and day 71 for MDAMB468 xenografts.

[2] = tested on: UM-UC-3 Nectin4 clone F7 xenograft; assay: Tumor xenograft, high nectin-4 expression; format: in vivo, mice (nu/nu); conditions: UMUC3 Nectin-4 clone F7 xenograft, single dose 2 mg/kg, day 40
Experimental: In order to test the efficacy of the nectin-4 ADCs of the present disclosure, which have effector null mutations in the Fc region, and to compare to the enfortumab antibody, which has wildtype Fc and in an ADC with the same payload background as the ones of this disclosure, two tumor xenograft models with either high or moderate nectin-4 expression were tested as described. Immune compromised female mice (nu/nu) between 5-8 weeks of age with weight 18-20 grams were implanted unilaterally on the right flank with UM-UC-3 Nectin4 clone F7 cells with high nectin-4 expression. […] The test articles were given at a single dose (2 mg/kg) formulated with 5% dextrose. Tumors were measured biweekly until Day 40.

Molecule | ka (human Nectin-4) | kd (human Nectin-4) | ka (cyno Nectin-4) [M⁻¹ s⁻¹] | kd (cyno Nectin-4) [s⁻¹] | ka (rat Nectin-4) [M⁻¹ s⁻¹] | kd (rat Nectin-4) [s⁻¹] | IC50 [1] [nM] | Mean tumor volume (MDA-MB-468 xenograft) [mm^3] | Mean tumor volume [2] [mm^3]
Ab8 (conjugate) heavy: QVQLVQSGAEVKKPGASVKVSCKASGYTFTSYYIHWVRQAPGQGLEWMGIINPISGRTSSAQKFQGRVTMTRDTSTSTVYMELSSLRSEDTAVYYCAKEGVGGELLRAFDIWGQGTLVTVSSASTKGPSVFPLAPSSKSTSGGTAALGCLVKDYFPEPVTVSWNSGALTSGVHTFPAVLQSSGLYSLSSVVTVPSSSLGTQTYICNVNHKPSNTKVDKRVEPKSCDKTHTCPPCPAPEAAGGPSVFLFPPKPKDTLMISRTPEVTCVVVSVSHEDPEVKFNWYVDGVEVHNAKTKPREEQYNSTYRVVSVLTVLHQDWLNGKEYKCKVSNKALPAPIEKTISKAKGQPREPQVYTLPPSREEMTKNQVSLTCLVKGFYPSDIAVEWESNGQPENNYKTTPPVLDSDGSFFLYSKLTVDKSRWQQGNVFSCSVMHEALHNHYTQKSLSLSPGK light: QSVLTQPPSVSEAPRQRVTISCSGSSSNIGNNAVNWYQQLPGKAPKLLIYYDDLLPSGVSDRFSGSKSGTSASLAISGLQSEDEADYYCAAWDDSLNGFVFGGGTKLTVLGQPKAAPSVTLFPPSSEELQANKATLVCLISDFYPGAVTVAWKADSSPVKAGVETTTPSKQSNNKYAASSYLSLTPEQWKSHRSYSCQVTHEGSTVEKTVAPTECS | (6.94 ± 1.14) × 10^5 1/Ms | (3.38 ± 0.75) × 10^−2 1/s | 1.25e+06 | 0.0524 | 482000 | 0.0165 | 0.0694 | – | –
Ab7 ADC: Ab7 conjugated as in Formula XI, and with a DAR of 8 (conjugate) heavy: QVQLVQSGAEVKKPGASVKVSCKASGYTFTNYYMHWVRQAPGQGLEWMGIINPSSGSASYAQKFQGRVTMTRDTSTSTVYMELSSLRSEDTAVYYCAREGVGRDILQAFDIWGQGTLVTVSSASTKGPSVFPLAPSSKSTSGGTAALGCLVKDYFPEPVTVSWNSGALTSGVHTFPAVLQSSGLYSLSSVVTVPSSSLGTQTYICNVNHKPSNTKVDKRVEPKSCDKTHTCPPCPAPEAAGGPSVFLFPPKPKDTLMISRTPEVTCVVVSVSHEDPEVKFNWYVDGVEVHNAKTKPREEQYNSTYRVVSVLTVLHQDWLNGKEYKCKVSNKALPAPIEKTISKAKGQPREPQVYTLPPSREEMTKNQVSLTCLVKGFYPSDIAVEWESNGQPENNYKTTPPVLDSDGSFFLYSKLTVDKSRWQQGNVFSCSVMHEALHNHYTQKSLSLSPGK light: QSVLTQPPSVSEAPRQRVTISCSGSSSNIGNNAVNWYQQLPGKAPKLLIYYDDLLPSGVSDRFSGSKSGTSASLAISGLQSEDEADYYCAAWDDSLNGHVFGGGTKLTVLGQPKAAPSVTLFPPSSEELQANKATLVCLISDFYPGAVTVAWKADSSPVKAGVETTTPSKQSNNKYAASSYLSLTPEQWKSHRSYSCQVTHEGSTVEKTVAPTECS | – | – | – | – | – | – | – | 245.33 | 319.79
Ab8 ADC: Ab8 conjugated as in Formula XI, and with a DAR of 8 (conjugate) heavy: QVQLVQSGAEVKKPGASVKVSCKASGYTFTSYYIHWVRQAPGQGLEWMGIINPISGRTSSAQKFQGRVTMTRDTSTSTVYMELSSLRSEDTAVYYCAKEGVGGELLRAFDIWGQGTLVTVSSASTKGPSVFPLAPSSKSTSGGTAALGCLVKDYFPEPVTVSWNSGALTSGVHTFPAVLQSSGLYSLSSVVTVPSSSLGTQTYICNVNHKPSNTKVDKRVEPKSCDKTHTCPPCPAPEAAGGPSVFLFPPKPKDTLMISRTPEVTCVVVSVSHEDPEVKFNWYVDGVEVHNAKTKPREEQYNSTYRVVSVLTVLHQDWLNGKEYKCKVSNKALPAPIEKTISKAKGQPREPQVYTLPPSREEMTKNQVSLTCLVKGFYPSDIAVEWESNGQPENNYKTTPPVLDSDGSFFLYSKLTVDKSRWQQGNVFSCSVMHEALHNHYTQKSLSLSPGK light: QSVLTQPPSVSEAPRQRVTISCSGSSSNIGNNAVNWYQQLPGKAPKLLIYYDDLLPSGVSDRFSGSKSGTSASLAISGLQSEDEADYYCAAWDDSLNGFVFGGGTKLTVLGQPKAAPSVTLFPPSSEELQANKATLVCLISDFYPGAVTVAWKADSSPVKAGVETTTPSKQSNNKYAASSYLSLTPEQWKSHRSYSCQVTHEGSTVEKTVAPTECS | – | – | – | – | – | – | – | 349.91 | 820.06
